According to the supplement of paper PMC10338343:
± gives the standard deviation. The entries are a selection whose mix differs from that of the whole data set.

system: MIWI (PIWIL1) piRISC loaded with piRNA #1 (30 nt); experiment: pre-steady-state target cleavage rate (min^-1); MIWI and MILI are mouse PIWI proteins and EfPiwi is from a freshwater sponge; tags in brackets are library labels; higher = faster piRNA-guided slicing of the target; settings: guide: piRNA #1 5'p-UGAGGUAGUAGGUUGUAUAGUAUCCAGAGG; auxiliary factor: 500 nM mouse GTSF1
Summary of the method: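 A transcribed, DNA-blocked target RNA library (0.1 nM) and 1 nM active affinity-purified piRISC bearing one synthetic guide were incubated in HEPES–potassium acetate buffer at 33 °C for 0–8 or 0–960 min, either with or without 500 nM GTSF1 partner protein. Uncleaved targets were sequenced, normalised to depth and to weakly complementary targets, and pooled over three trials, with k3 capped at 0.0001 min^-1. The pre-steady-state cleavage rate was derived with a burst-and-steady-state fit.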

Sequence	pre-steady-state target cleavage rate
CCUCUGGAUAGUAUACAACCUACUACCUGA	0.0128 ± 0.005
GCUCUGGAUACUGUACAACCUACUACCUCA	0.583 ± 0.053
CCUCUCGAUACUAUACAACCUACUACGUCA	1.95 ± 0.14
GGAGACCAUACUUAUACAACCUACUACCUCA	0.953 ± 0.075
GGAGACCUAUGAUAAGAACCUACUACCUGA	< 0.0001
GGAGACGAUACAAUACAACCUACUACCACA	1.08 ± 0.081
GCUCUGGAUACUAUACAACCUACUACACUCA	0.988 ± 0.095
CGUCUGGAUACUAUACAACCUACUACGUCA	1.59 ± 0.082
GGAGUGGAUACUAUACAACCAACUAGCUCA	0.0216 ± 0.0041
GGAGACCUAUGUAUACAUCCUUCUACCUCA	0.00379 ± 0.002
GGAGACCUAACUAUACAACCUACUACGUGA	0.356 ± 0.04
CCUCUGGAUAGUAUACUACCUACUACCUCA	0.115 ± 0.022
GGACUGGAUACUAUACAUCCUACUUCCUCA	0.124 ± 0.022
GGUCUGCAUUCUAUACAACCUACUACCUCA	1.51 ± 0.11
GGAGAGGUACUAUACAACCUACUACCUCA	0.483 ± 0.042
GCUCUGCAUACUAUAGAACCUACUACCUCA	1.05 ± 0.063
GGAGACCUUACUAUACAACCUACUACCUA	1.01 ± 0.081
GGAGACGAUACUAUACAACCUACUAGCUCA	0.528 ± 0.055
CCUCUGCAUACUAUUCAACCUACUACCUCA	2.21 ± 0.14
CCUGUGGAUUCUAUACAACCUACUACCUCA	1.87 ± 0.1

Sequence	pre-steady-state target cleavage rate
GGAGAGGAUUCUAUACAACCUACUUCCUCA	0.0434 ± 0.0092
CCUCUGGAUAGUAUACAAGCUACUACCUCA	0.0677 ± 0.016
GGAGACCUUUACUAUACAACCUACUACCUCA	1.85 ± 0.17
GGUCUGGAUACUAUCACAACCUACUACCUCA	1.58 ± 0.13
GGAGACGAAACUAUUCAACCUACUACCUCA	1.08 ± 0.076
GGAGACCAUACUAUAGAACCUAGUACCUCA	0.00382 ± 0.0021
GGACUGGAUUACUAUACAACCUACUACCUCA	1.55 ± 0.13
GGAGACCUUACUAUACAACGUACUACGUCA	0.377 ± 0.052
GGUCUGGAUACUAUAGAACCAACUACCUCA	0.0267 ± 0.0039
GGUCUGGAUACUAUAGUACCUACUACCUCA	1.21 ± 0.098
GGAGACGAUACUAUAACAACCUACUACCUCA	1.32 ± 0.1
GCUGUGGAUACUAUACAACCUACUUCCUCA	0.00591 ± 0.0023
GGAGUGGAUACUAUACAACCUACUAACCUCA	0.901 ± 0.053
GCUCUGGAUACUAUACGACCUACUACCUCA	1.48 ± 0.083
GGAGACCUUACUAUACAACCUAGUAGCUCA	0.00589 ± 0.0023
GGAGACGAUCACUAUACAACCUACUACCUCA	1.19 ± 0.1
GGACUGGAUACUAUUCAUCCUACUACCUCA	1.19 ± 0.089
GCUCUGGAUACUAUUCAACCUACUACCUGA	0.811 ± 0.11
CCUCUGGAUACUAUAGAACCUACUACGUCA	0.694 ± 0.071
GGACUGGAUACUAUACAACCUACUCCCUCA	0.245 ± 0.039
